Data on 167 variants can be found in the RNAGym collection of RNA variant scans (doi:10.7554/elife.90254).

First the molecules themselves.
B1: LINE1-full (parent)
chain: UACGUAGGUGGUUUUCCCCUGAUAGUGCUAAGGGGGCCUGGAAGUUUGGACUGGGCAGAGCUCAACACAGCGUGGCAAAGUGGCUGUGGCUAGACUGCCUCUCUGGAUUCCUCGUCACUCAGCAGGGCAUCUCUGAGAGAAAUGCC

Read counts are not given, so values of variants with three or more changes are uncertain.

In the data set the parent is B1. Description: self-cleavage, relative activity (ratio to wild type); higher = more cleavage; in vitro, sequencing; the parent is a self-cleaving ribozyme.
For U13C U20A U26C U52A C71U U96A A107G, the self-cleavage is 0.21. As for U14A A59G A67U, the figure is 0; as for U13C U20A A79G A121G A141G, 0.42; as for U13C U26A A57U U62C A78U U108A A136G, 0.16. For U14A A92G G106U, the self-cleavage stood at 0.14. As for U13C U73A U130C, the figure is 1.47; as for U13C G88A G93U, 0.04. U13C U20G U102C: the self-cleavage came to 1.15. U13C U14C A79G: the self-cleavage turned out to be 0.28.

Turning to U14C A22G U45G U100C A140G, the self-cleavage came to 0.26. Consider U14A G25U A77U, for which the self-cleavage was determined as 0.63. Next, U14C A31G U119C A121G: 2.3; U13C U108C A138U: 1.37. With U13C U102C A142G, the self-cleavage amounted to 1.04.

As to U13C U20A U52A A64G U112C, the self-cleavage is 0.

For U13G G41A C56U A64U U73A A77G A92G, the self-cleavage is 0.05. As for U13C G53A U73G U100A, the self-cleavage stood at 0.34. Next, U14A A121G A136G: 0.21; U14C A64U C118A A121U: 0.36; U13C G33U A57U: 0.1. Next, U14C A22G U52C U112A: 0.62; U13C U52C A57G C98U U108C: 0.21; U13C U47C U130C C146A: 0.4.

Regarding U13C U20A U87A U102C, the self-cleavage was 0.03. As for U13C U15C A77U U134C, the figure is 0.27; as for U14A C90A U119A, 0.02. As for U14C A42G C120U, the figure is 0.61; as for U14C A59G U130A, 0.24; as for U13C U20C U73C, 1.39.

As to U14A A22G U39A C116U, the self-cleavage was found to be 0.53. As for U13C U47C A77G A121G, the figure is 0.97. As for U14A A67C U109A, the self-cleavage worked out at 0. As to U13C G125U U130C G137A, the self-cleavage turned out to be 0. As for U13C U45C U62C A78G G97A, the figure is 0; as for U14C A57G A77G U85C, 1.53; as for U13C G40A U115C, 1.17. As for U13C U104A C113U A136U G144A, the self-cleavage is 1.57.

For the variant U14A U26A U46C A67U A69U, the self-cleavage stood at 0.03.

Take U14C A50G G72A: the self-cleavage stood at 0.88.

In the case of U14C A59U U115G, the self-cleavage came out at 0.77. In the case of U14C A30U U87C, the self-cleavage is 0.43. As for U13C U87C U134G, the self-cleavage was 0.18. Next, U13C U108C U109C: 1.19; U14A C51A A69G U143A: 0.57. On to U14A G32A C63U A64G A69G U85A U100C A136G A140G, for which the self-cleavage is 0. For the variant U14C A24G U26C C66A, the self-cleavage turned out to be 0.45. Take U14A U39A U81A U109C: the self-cleavage came to 0.82. Turning to U14C A65G U96A, the self-cleavage worked out at 0.11. With U13C G135A A136G, the self-cleavage worked out at 1.78. As for U13C U96C U100C, the figure is 0; as for U13C G40A A79U, 1.1; as for U13C U45C A129G, 1.1. As to U13C G34U U85A U102C, the self-cleavage came to 0.24. Turning to U13C G82A U143A, the self-cleavage worked out at 0.88. As for U14A U96C A138U, the figure is 0.23. As for U14C A50G G125A, the figure is 0.67; as for U14A A24G G106A G125U, 1.37.

In the case of U13C U62C U73C G86A, the self-cleavage worked out at 0. As for U13C U85C U104C, the figure is 0.37; as for U14A A57G A64U, 0.23; as for U13C U46C A65G U73A U85A, 0.92. With U13C U115C A129G A138G, the self-cleavage was determined as 1.97.

In the case of U13C U14C A124G U143A, the self-cleavage worked out at 0. As for U13G A42G A124U, the self-cleavage was determined as 0.67.

On to U13G G86A U100C, for which the self-cleavage was found to be 0.19. In the case of U13C U62C U100C, the self-cleavage worked out at 0.11. As for U13C U14C U45C A78U U87A A129U G139A, the figure is 0.22; as for U14C A57U A142G, 0.18; as for U13C U20C U85C A136G, 0.56. On to U13C U47A U85A, for which the self-cleavage worked out at 0.06. Turning to U14A A69G U81A U132A A138G, the self-cleavage came out at 0.46. Next, U14C A64G A77G A78G A107U A140C: 0; U13C U14C A140G: 1.11; U14A A59G U100C C116U U134C: 0.

Consider U14C A57U U102C, for which the self-cleavage is 0.19. U13C U112C C131A: the self-cleavage worked out at 1.39.

As to U13C U96C A121U, the self-cleavage was 0.2.

On to U13C U134A A136G, for which the self-cleavage amounted to 1.58. As for U14C A42G G54A A94U A141G, the figure is 0. Turning to U14A G36A A50G U87A, the self-cleavage came out at 0.04. Next, U13C U23A U62C A94U U102C U112G C113U G137U: 0; U14A A117C A124U U132A: 1.21. As for U13C U20A U109A A140G A141G, the figure is 0.4. As to U13C G34A A69U U96A, the self-cleavage turned out to be 0.04.

Regarding U13C U23C U109G, the self-cleavage came to 0.44. Regarding U13C U52A U62C U96C, the self-cleavage was 0.09. Next, U13C U46C A107G: 2.3; U13C U119A A129G: 0; U14C A59G A78G: 0. As for U13C U14C A42G U62C U104A, the figure is 0.15; as for U14C A43G U108C A124G, 0. Next, U13C U15A U73C: 0.64; U13C G36A U87C A94G: 0.38; U13C U108C U132C: 1.15. In the case of U13C G41A U143A, the self-cleavage came to 1.16. Next, U13C U47C U115C: 1.41; U14A A30G A117C G144A: 1.15. Next, U13C U85C U115A: 0.19; U13C U46C A65G G80A U100A C113U A121G A124G: 0.16. For the variant U14A A42U U100C U134A U143C, the self-cleavage stood at 1.52. Next, U13C U46A A59G A117G A124U: 0.1; U13C U26A G72A U73C U132C: 1.59; U14C A57G A117U: 0.8. Next, U13C U14C U45A: 1.1; U14C A50G U52A: 0.98. In the case of U13C U14A A67G, the self-cleavage is 0.61. As for U14A U62G A140G, the figure is 0; as for U13G U62G C120A, 0. Next, U13C G72A U108C: 1.42; U13C U52C U62C U108C: 0.46. Take U14C A57G U100C G122U G127A: the self-cleavage was determined as 1.43. On to U13C U39A G44A A107G, for which the self-cleavage was found to be 0. Next, U13G U26A A43G: 0.97. As for U13C U14C A64U A92U U96C G114A, the figure is 0.2.

With U13C U15C U87C, the self-cleavage is 0. Next, U14A A24U U52C A141G: 0.47; U14A U100C U130A: 0.9. Next, U14C A43U U62A G70A U104C: 0; U13G U39C A141G: 0. Regarding U13C U14C U108C U132C, the self-cleavage was 1.75. With U13C G34A U73A A121G, the self-cleavage came to 1.53. As for U13C U45C U119C C123A A124G A138G, the self-cleavage amounted to 0.65. As for U14A U15C U26C U87A, the figure is 0.32; as for U14A C18U U39C U45C A57G U143A, 0.62; as for U13C G54A A67G U112C U119G A141G, 0.27. As for U13C U62C A107G, the figure is 0; as for U13C U73G A79G, 0.

Take U13G U23C A79G U87A U132C: the self-cleavage was determined as 0.16.

Consider U13C U39C U46C U85A, for which the self-cleavage was 0.17.

Regarding U13C U62C U87A, the self-cleavage stood at 0.1. As for U14A U85C A142U, the figure is 0.09. As for U14A A79G U102C A142G, the figure is 0.39; as for U13C U39A U46A G49A, 1.13; as for U14A A42G U73A, 1.05. In the case of U13C U85C A121U U134C, the self-cleavage amounted to 0.42.

As for U14C A59G A65G A141G, the self-cleavage was 0. Regarding U13C U45C U108C, the self-cleavage is 1.45. Regarding U13C U91A U130C, the self-cleavage was determined as 0.81. In the case of U14C A22G U96A, the self-cleavage was found to be 0.12. As for U14A U46C C68A U81C, the figure is 0.13. As for U13G A42G U85C U104A, the figure is 0; as for U14A U102C C123A A124U, 1.41. U13C U15C A57G G82C A121U U130C: the self-cleavage was 0.66. As to U13C U104A U115A, the self-cleavage is 1.16. As for U14C A65G U112C, the self-cleavage worked out at 0.07. As for U13C U14C U102C, the figure is 1.29; as for U13C U73A A138G, 1.55; as for U13C U81A U112C, 1.69. Next, U14C A30G U39C U46A U96G: 0. As for U13C U15A U119C A136G, the figure is 1.21. Regarding U14A U52C A79U, the self-cleavage is 1.12. U13C U47A U112C G135A: the self-cleavage is 0.75.

Consider U13C U81C U100C, for which the self-cleavage was 0.61. Take U13C U119C A136C: the self-cleavage amounted to 2.98. Next, U13C U14C A64G: 0.2.

On to U14C A24U A94U U108C A141G, for which the self-cleavage came out at 0.59. Turning to U14C A42G U115C, the self-cleavage was determined as 1.18. Next, U13C U81A U102C: 2.02; U13C U26G U47C A69G: 0; U13G A22G C56G A78U U100C G144A C146G: 0.68. Take U14C A50G A141G: the self-cleavage was 0.77. Next, U14A G35A G80A: 1.18; U13C U119C A141G: 2.04; U14A U20C G114A U115C: 1.06. As for U13C U15C U85A, the self-cleavage came to 0.12. On to U14C A42G A50G U104C G126U C146A, for which the self-cleavage stood at 1.84. Next, U13C U15C U29A U39A U52A A121C G122U: 1.27.
